Test results from patent publication US20260184778A1 (REGENECORE BIOTECH, published 2026).

How the values were obtained:
IL-4Rα = IL-4Rα (human, UniProt P24394 26-232, limits assumed); experiment: cell-based or functional assay
IL-5 = IL-5 (human, UniProt P05113 20-134); experiment: cell-based or functional assay
Sequence of IL-5 (P05113 20-134 limits assumed): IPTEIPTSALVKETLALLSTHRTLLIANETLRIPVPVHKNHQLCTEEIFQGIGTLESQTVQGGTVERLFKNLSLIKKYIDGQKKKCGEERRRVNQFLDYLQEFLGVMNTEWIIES

EC50(nM), neutralizing IL-13-induced TF-1 proliferation (IL-4Rα): 0.215 nM | EC50 (nM), neutralizing IL-5-induced TF-1 cell proliferation (IL-5): 0.175 nM
B1: anti-IL-4Rα/IL-5 bispecific antibody 4E9V10-2B3V2-1 (bispecific antibody, human IgG4)
chain: QVQLVESGGGLVQPGGSLRLSCAASGDFYCMAWFRQAPGKEREAVAAIRSGGRSTYYADSVKGRFTISRDNSKNTLYLQMNSLKAEDTAVYYCAVGVDGNCRNYWGQGTLVTVSS[skipping human IgG4 Fc]ESKYGPPCPSCPQVQLVESGGGSVQAGGSLRLSCAASGNTFSFSTYCMGWFRQSPGKEREGSLATIYDASTAYAGSVKGRFTISRDNSKNILYLQMNNLRAEDTAVYYCAAARYCMFWSHPSYWGQGTQVTVSS
